According to PubChem BioAssay AID887 (National Center for Advancing Translational Sciences (NCATS), 2007):
The whole screen tested about 74,000 compounds, of which about 1,100 (1.5%) were called active. This list was built around the results that the source calls inconclusive (neither active nor inactive); the mix of calls is not that of the screen. The call rests on the fitted dose curve; in most records, active means well fitted inhibition curve with a large enough effect; inconclusive means small, poorly fitted or top-dose-only effect; inactive means no such curve, though single readings can be large or run the other way. No potency is given beside an inconclusive call; the fits are too rough.

What follows are compounds tested against Polyunsaturated fatty acid lipoxygenase ALOX15 (Homo sapiens) (UniProt P16050) (assay: qHTS Assay for Inhibitors of 15-hLO (15-human lipoxygenase)). Settings: purified 15hLO-1, xylenol orange hydroperoxide absorbance; activity change, negative = inhibition: at 57.1 µM (top of the series) unless noted.
Method in brief: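 Hydroperoxide formed from arachidonic acid (50 uM) by purified human 15hLO-1 (40 nM) oxidizes ferrous iron, and the ferric-xylenol orange complex is read at 573 versus 405 nm. Compounds were preincubated 15 min; reaction ran 6 min at room temperature.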
Further: nearly all actives have a fitted effect of over 55% in size.
On the % scale 0 is the no-effect control and ±100 the full control effect; potency means the concentration at half of the fitted maximal effect; tags describe the fitted curve by direction and shape.

Sequence of UniProt P16050 (P16050 whole entry, looked up): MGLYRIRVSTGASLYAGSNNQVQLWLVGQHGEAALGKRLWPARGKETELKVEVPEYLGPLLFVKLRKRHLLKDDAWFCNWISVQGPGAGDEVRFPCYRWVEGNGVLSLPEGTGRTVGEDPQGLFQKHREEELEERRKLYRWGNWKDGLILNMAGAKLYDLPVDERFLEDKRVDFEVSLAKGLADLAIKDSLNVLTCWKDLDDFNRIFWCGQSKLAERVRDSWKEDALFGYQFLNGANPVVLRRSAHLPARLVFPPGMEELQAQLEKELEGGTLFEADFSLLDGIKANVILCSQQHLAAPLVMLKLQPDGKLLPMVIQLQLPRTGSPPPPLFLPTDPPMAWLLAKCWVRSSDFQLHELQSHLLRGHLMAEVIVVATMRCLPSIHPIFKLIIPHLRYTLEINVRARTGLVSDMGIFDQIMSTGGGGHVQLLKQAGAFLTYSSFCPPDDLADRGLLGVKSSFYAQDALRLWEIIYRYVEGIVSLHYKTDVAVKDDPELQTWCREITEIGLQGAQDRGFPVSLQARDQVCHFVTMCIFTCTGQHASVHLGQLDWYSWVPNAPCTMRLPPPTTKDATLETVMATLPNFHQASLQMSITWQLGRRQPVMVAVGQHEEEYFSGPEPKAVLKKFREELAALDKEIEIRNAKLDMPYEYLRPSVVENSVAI

Structure (SMILES) | activity change, negative = inhibition | Potency
NCOC(=O)Cc1ccc(Br)cc1 | inactive: 7.63% [at 11.4 µM] | –
COc1cccc(CNc2cccc3cccnc23)c1O | inactive: 5.64% | –
O=C1c2[nH]nc(-c3ccccc3O)c2C(c2ccccc2F)N1Cc1ccco1 (stereo unspecified) | – | inconclusive [inhibitor, partial curve]
Cc1noc(/C=C/N(C)C)c1S(=O)(=O)N1CCCC(C(=O)NCc2ccc(Cl)cc2)C1 (stereo unspecified) | inactive: -14.7% | –
O=C(NCCCN1CCOCC1)c1ccc(-n2c(=O)c(=O)[nH]c3ccccc32)cc1 | inactive: -0.303% | –
CC(=O)NNC(=O)N1Cc2ccccc2Oc2ccc(Cl)cc21 | – | inconclusive [inhibitor, partial curve]
O=c1c(CCc2ccccc2)nc2cnc(N3CCOCC3)nc2n1C1CC1 | inactive: -1.13% | –
CN1C(=O)CSc2ccc(NC(=O)N3CCOCC3)cc21 | – | inconclusive [inhibitor, single point]
Cc1onc(-c2ccccc2Cl)c1C(=O)OCC(=O)N1CCCc2ccccc21 | – | active: 20 µM
CC(=NC1CCCCC1)c1ccccc1O | – | inconclusive [inhibitor, single point]
O=C(Nc1ccc(Br)c(Cl)c1)c1ccco1 | – | inconclusive [inhibitor, partial curve]
CC1CN(C(c2ccco2)c2sc3ncnn3c2O)CC(C)O1 (stereo unspecified) | inactive: 38.1% | –
CC1=C(C(=O)Nc2ccc(C)cc2)C(c2ccc(C)o2)C2=C(CC(C)(C)CC2=O)N1 (stereo unspecified) | – | inconclusive [inhibitor, single point]
O=C1CCCC(O)=C1C(C#Cc1ccccc1)C1=C(O)CCCC1=O | – | active: 7.94 µM
Oc1ccc(Nc2nc(-c3ccc(O)cc3)cs2)cc1 | – | inconclusive [inhibitor, single point]
COc1ccccc1-c1cncnc1N1CCN(C)CC1 | – | inconclusive [inhibitor, partial curve]
Cc1ccc2c(c1)nnn2C1CCN(C(=O)c2cccs2)CC1 | inactive: 0.221% | –
NC(=O)c1oc2ccccc2c1NC(=O)c1ccc(F)cc1 | inactive: -3.35% | –
O=C1C(=O)c2ccccc2C(O)=C1C(CCc1ccccc1)C1=C(O)c2ccccc2C(=O)C1=O | – | inconclusive [inhibitor, single point]
Cc1cc(C)nc(SCCc2cccc[n+]2C)n1 | inactive: -14.5% [at 11.4 µM] | –
CCN1C(=O)/C(=C/N2CCc3ccccc32)SC1=S | inactive: -2.53% | –
Cc1cccc(CNc2ccnc(-c3ccoc3)n2)c1 | inactive: -14.5% | –
OCl | inactive: 2.27% | –
O=C(CCc1nc2ccccc2[nH]1)Nc1ccccc1 | inactive: -0.175% | –
c1ccc(CSc2nnc(-c3ccco3)c(-c3ccco3)n2)cc1 | – | active: 6.31 µM
COc1ccc(N2CCC(CNC(=O)Nc3ccc(C)c(C)c3)C2)cc1 (stereo unspecified) | – | inconclusive [inhibitor, partial curve]

Structure (SMILES) | activity change, negative = inhibition | Potency
Cc1cc(NC(=O)CN2CCN(c3ccccc3O)CC2)no1 | – | inconclusive [inhibitor, single point]
Cc1ccc(S(=O)(=O)Nc2c(C)n(C)n(-c3ccccc3)c2=O)cc1C(=O)NCc1ccccn1 | – | inconclusive [inhibitor, full curve, poor fit]
Nc1c(S(=O)(=O)O)cc(Nc2ccc(Nc3nc(Cl)nc(Nc4ccc(S(=O)(=O)O)cc4)n3)c(S(=O)(=O)O)c2)c2c1C(=O)c1ccccc1C2=O | – | inconclusive [inhibitor, partial curve]
COC(=O)NC(c1ccccc1)[C@@]1(C(=O)OC)CCCC1=O (stereo partly specified) | inactive: 9.54% [at 11.4 µM] | –
Nc1ccc(Nc2ccccc2)c(Cl)c1 | – | inconclusive [inhibitor, single point]
Oc1cccc(Nc2nc(NCC3CCCO3)c3ccccc3n2)c1 (stereo unspecified) | – | inconclusive [inhibitor, single point]
Cc1noc(C)c1-c1cncnc1NCCN1CCOCC1 | – | inconclusive [inhibitor, partial curve]
COc1ccc(-c2ccc(CCC(=O)O)n2C(C)C)cc1 | – | inconclusive [inhibitor, partial curve]
Cc1ccc(OCc2nc(C#N)c(N3CCN(Cc4ccccc4)CC3)o2)cc1 | inactive: -5.67% | –
O=S(=O)(NC1c2cccc3cccc(c23)C1N1CCNCC1)c1ccccc1 (stereo unspecified) | – | inconclusive [inhibitor, partial curve]
Oc1ccc(Nc2nc(-c3ccc(Cl)cc3)cs2)cc1 | – | inconclusive [inhibitor, partial curve]
Cc1cccc(NC(=O)C2CCN(S(=O)(=O)c3cccc4nsnc34)CC2)n1 | inactive: -12.3% | –
COC(=O)c1cc(NC2c3ccccc3C(=O)N2c2cccnc2)cc(C(=O)OC)c1 (stereo unspecified) | inactive: 3.13% | –
CS(=O)(=O)N1CCC[C@@]2(CCN(C(c3ccccc3)c3ccccc3)C2)C1 | inactive: -13.3% | –
Cc1sc2ncnc(N3CCCCC3C)c2c1C (stereo unspecified) | inactive: -4.83% | –
CCN(CC)c1nc(-c2nn[nH]n2)nc(N(CC)CC)n1 | – | inconclusive [inhibitor, single point]
CCN(CC)CCCC(C)Nc1c2ccc(Cl)cc2nc2ccc(OC)cc12 (stereo unspecified) | – | inconclusive [inhibitor, single point]
CS(=O)(=O)N1CCC2(CC1)CN(C(=O)Nc1ccccc1)C2 | – | active: 0.501 µM
O=C(NCCCn1ccnc1)Nc1ccc(Cl)cc1 | inactive: 7.75% | –
CC(C)=CCC/C(C)=C/CO/N=C1/C[C@@H](O)[C@@H](O)[C@@H]2[C@@H]3C(=O)N(Cc4ccccc4)C(=O)[C@H]3CC[C@H]12 | inactive: -16.3% [at 11.4 µM] | –
CCOC(=O)C(C)Sc1ccc2nnc(-c3ccc(F)cc3)n2n1 (stereo unspecified) | – | inconclusive [inhibitor, single point]
COc1ccc(NS(=O)(=O)c2ccc3oc4ccccc4c3c2)cn1 | – | inconclusive [inhibitor, partial curve]
Cc1ccc(Nc2c3c(nc4ncnn24)CCC3)cc1 | inactive: 4.77% | –
Cc1cc(N=Cc2c(O)ccc3ccccc23)no1 | inactive: -15% | –
COc1ccc(-n2c(=O)cnc3cnc(Oc4cccc(Cl)c4)nc32)cc1 | inactive: 3.22% | –
Cc1ccc(C2C(C#N)=C(N)Oc3c2sc2ccccc32)o1 (stereo unspecified) | – | inconclusive [inhibitor, partial curve]

Structure (SMILES) | activity change, negative = inhibition | Potency
c1ccc2c(c1)CCCN2Cc1nnnn1C1CCCC1 | – | inconclusive [inhibitor, partial curve]
COc1ccccc1CNC(=O)CC(NS(=O)(=O)c1ccc(C)cc1)c1ccco1 (stereo unspecified) | – | inconclusive [inhibitor, single point]
CCOC(=O)Cc1csc(NC(=O)c2csc3c2CCCC3)n1 | – | inconclusive [inhibitor, single point]
CC1=C(C)C(=O)C(CCCCC#CCCCC#CCO)=C(C)C1=O | – | inconclusive [inhibitor, partial curve]
CCCn1c(CCC(=O)O)ccc1-c1ccc(F)cc1 | – | active: 7.94 µM
O=C(Nc1cnn(Cc2ccc(F)cc2)c1)c1cc2nc(-c3ccco3)cc(C(F)(F)F)n2n1 | inactive: -12.5% | –
Cc1occc1C(=O)Nc1cccc(Cn2cccn2)c1 | – | inconclusive [inhibitor, single point]
O=C(O)CCc1ccc(-c2cccs2)n1-c1ccc(C(=O)O)cc1 | – | inconclusive [inhibitor, partial curve]
O=C(C1CCN(S(=O)(=O)c2ccc(F)cc2)CC1)N1CC=C(c2ccccc2)CC1 | – | inconclusive [inhibitor, single point]
COCC(=O)N(C)C1(c2nnnn2CCOC(=O)Nc2cccc3ccccc23)CCCC1 | – | inconclusive [inhibitor, partial curve]
O=C(c1cnn2c(C(F)F)cc(C3CC3)nc12)N1CCc2ccccc2C1 | – | inconclusive [inhibitor, single point]
CCN(CC)c1ccc(C2CC(=O)NC3=C2C(=O)CC(C)(C)C3)cc1 (stereo unspecified) | – | inconclusive [inhibitor, single point]
Cn1cc(S(=O)(=O)Nc2ccc(Br)cc2F)c(=O)n(C)c1=O | – | inconclusive [inhibitor, partial curve]
CSc1ccccc1NC(=O)C1CC(c2ccccc2O)=NO1 (stereo unspecified) | – | inconclusive [inhibitor, partial curve]
CC(=O)c1cccc(NC(=O)Nc2ccc3c(c2)N(C)C(=O)CS3)c1 | – | inconclusive [inhibitor, partial curve]
CCOC(=O)Cn1c2ccc(OC)cc2c2nc3ccccc3nc21 | – | inconclusive [inhibitor, partial curve]
COc1ccccc1CN1CC[C@@]2(CCCN(S(C)(=O)=O)C2)C1 | inactive: -7.95% | –
COC(=O)C1=C(C)NC(C)=C(C(=O)OC)C1c1ccccc1[N+](=O)[O-] | – | inactive
CN(C)c1nc(N)c(C(=O)Nc2cccnc2)nc1Cl | – | inconclusive [inhibitor, single point]
CCCCS(=O)(=O)/C=C\C1C2C=CC(C2)C1S(=O)(=O)CCCC (stereo unspecified) | inactive: -3.37% | –
c1ccc(-c2csc(-c3nc4ccccc4[nH]3)n2)cc1 | – | active: 7.94 µM
CCOc1ccc(C2C(C#N)=C(N)Oc3n[nH]c(C)c32)cc1OC(=O)C1CC1 (stereo unspecified) | – | inconclusive [inhibitor, partial curve]
O=C(NCc1ccc2c(c1)OCO2)C1CCCN(S(=O)(=O)c2cccc3nonc23)C1 (stereo unspecified) | – | inconclusive [inhibitor, partial curve]
CC(c1ccccc1)n1cc(C(=O)NCC2COc3ccccc3O2)nn1 (stereo unspecified) | inactive: 2.28% | –
